Results as given in publication PMC10726135.
The list shows a part of the results. At the low end of the ranking the order means little. The protein was read in a cell extract, so binding may be indirect.

Molecular target: T1, HNF4alpha8 (COS-7 nuclear extract) (UniProt P41235-5)
T1 sequence: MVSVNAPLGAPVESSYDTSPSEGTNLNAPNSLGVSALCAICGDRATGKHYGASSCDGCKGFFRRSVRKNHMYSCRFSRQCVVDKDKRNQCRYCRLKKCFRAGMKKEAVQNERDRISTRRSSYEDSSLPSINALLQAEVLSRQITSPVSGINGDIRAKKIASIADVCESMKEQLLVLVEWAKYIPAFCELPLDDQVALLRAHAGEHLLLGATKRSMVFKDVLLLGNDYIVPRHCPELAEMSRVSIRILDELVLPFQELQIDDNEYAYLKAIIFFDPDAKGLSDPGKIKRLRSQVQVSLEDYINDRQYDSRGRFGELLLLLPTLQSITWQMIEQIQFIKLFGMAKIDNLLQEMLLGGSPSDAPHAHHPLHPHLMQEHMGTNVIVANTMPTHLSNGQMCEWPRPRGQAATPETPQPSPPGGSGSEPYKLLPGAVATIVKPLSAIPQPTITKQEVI
Experiment: protein-binding microarray
Conditions: COS-7 nuclear extract on double-stranded Agilent 4x180k PBM; binding buffer, salt, pH and temperature not given; high values mean tight binding; double strand, one strand shown; sequences stand for … in …GCCTAGGGAGATTAGAGTATCGGTCGA

Sequence	binding signal (log2 normalized intensity)
AAATCACAGATAAACCCCTGGAGCACAGAA	-0.0397
TTATTTGCGCCTCCCTAGAGCAGCAGTAGG	-1.18
GGTAGATGGGGCCAGATTGAGAAACACATT	-1.25
ATCCTGTCAGACCAAGGCTGCTTAACAAAC	-1.33
TGGGCAGGAGGGATCTGGCAGGGGCGCGGC	-1.34
AATGCGCAGAATTTCTTTTAATGTGTGCTT	0.136
CTTGGAGACAGTCACTCCCACCCTTCCTGT	1.6
TTCCTCTTCATATCAGTAAACCCCAATCAG	3.77
TGCCAGCCCCGAGATAACCCCTCTCCAAGC	4.43
TTCTTTACCATGTGTTGGCACTTTGGACTT	6.94
GCCAAGCAGGAGGTCAGAAACAGAAAGTCC	0.873
TTGAGACCTAGAGGAGAGAGTAAATAATTG	-1.32
TCCTGCCTAACCACCTGACCACAACACACA	-1.31
CCACCTACTGACCAAATGGGAACATTCCTC	-1.41
ATAGAGAAGCCAGGGGTAAGTTTCTAACTA	-1.32
CATCACAATAGGGAAACAGCGAGAGTCCTC	-1.22
TGGTCCTGCTCAAAGGGGAAAGAGGGGGAA	-1.38
TCTGATAAGGAAGATAATGGGTCCGAAGGT	2.59
ACAGGTTCCCTCATGATTTAGTAAGTTCAA	1.02
AGGAGGAGATAAGATCAGTATAGTTAGGGC	-1.24
CAGGGTCCAAAGGTGTCAAGAACATAGCCC	3.57
GCTCTGCGCAGGCGCAGTCCTCTCTCGCGA	-1.34
GAAAAGGCAGCAGCTTGGAATGTCAGGAAC	-1.34
GGTTACACAGTATGTTAATGGCAGAATCAA	-0.325
TGAGTCACTTGGTTTTCACAACCTCCCTTT	1.07

Sequence	binding signal (log2 normalized intensity)
CAGAGATTGGGACTATCAAATGTGGTGGGT	0.794
CGTACTTTTCATCTGATCAGTGCCCATCTG	1.75
AAGATTTCAGTAGCAAACCAATTCGCATAG	-1.24
AAAATATCTGATCGATATCCTAACCATGCC	-1.01
GCCTCCTGGCTGGGCAGGCTCCCTCCCTGG	-1.24
TATTATCTTTTTAATCAATAATCTTTGCCC	3.6
TGGTCAGTGCATAGCTAAGCACCCAGATAA	-1.26
CTGACCTCTGCCTCGGCCACATTCCCCGAC	1.27
CAGCAATAGGTCAGAGGACACCCGGGGTGG	-0.977
CCCCTGGCAACACCCCAGTGTGTTGCATGC	1.71
CAGTGTCATTTACAGAATTTCTCAGATGCC	-0.863
CACTTTGCTCCCTCCTTCAGTGCTCTGTTG	1.47
GTCAAAAATCTTAAGGAGGAGTGCTAGAGA	-1.3
GGACCTTGCCCTTTAGTTATCTCTTCTTTC	5.12
AGTGCCCTTCCACTTAGGCTTGCAATGCGG	-1.25
TCGAGGCCTCTTTATCTCCTCCCCTTGAGA	2.75
AGAGCAAAGATCATCTGGTGGCTTGAGTTG	0.634
AGAGTCCGGGGCAAACAAGGGCAACTCTAA	-1.3
GGCCGTGAAGCCGTCCTGTCCTGGACTTTC	4.47
GAAGGAGAGTGACCTCTGCTTGAAGGCATT	1.78
AGTAGCTCATTTATTATTTGTCTGGGTTAT	1.56
TGGTGGGTCAAGGTGCAAAGAGATGGGGAG	1.43
TTTACTCAGAAAGGTCAGCGCTTTGGTAGG	0.273
CCTACATAGAGAGCAGTCTTGAGCGCAAAT	-1.43
CACAGGGGAAACACAGACTCCAAAGAATGG	-1.36

Sequence	binding signal (log2 normalized intensity)
GTGTTGACCTCTGGACCTCATCTTCCTCCC	5.2
AGTCTTGGATCGGGATGATCAATGTGTAGT	1.65
CTTTGAAATGTCCTGAGTGATTGTAGTGTC	1.86
TGTCCCCAAGATTGAGGCCAGCAAAGGGCA	2.21
ATCTTTGACCTGGAGCATGACCCTTTGCAG	3.64
GCGGTCCGCAGCGCTGGTGGCTGCAAGGTT	-0.996
CCCCCCGCCGCATCTACCAGCGTAATTCTG	2.62
GAGGTGCCAGAAACCTGACTTCCAATTTAC	-1.22
CACCTCTCACCTGGATGTTTTGATGAACTT	2.12
CAGCTACACAAAGGCAGAGCACTAAATCTC	-1.26
CACCCTTCAGCAAATAGTGGGAGGTGGAAG	-1.13
ATTCACCAGGCAATCAGCCTTAGGTATGCC	-1.29
TATTGTAAAAGAAAGTGAGCAGGCAGTGTC	-0.316
ATGGGCAAAGGACAATAATGAATAAGCACG	-1.08
TTTCCCCTAGTTACAACTGTAAACATCTAA	0.619
GCCTCTTGACCCCTTGGCCCCGCTGTCCTG	4.65
TTAAGCAGCAGATAAGGCTAATCCTTACAC	-1.35
ACGTCGCTGCCGCAGATCCCCGCTCCCCTC	3.7
GTGCAAACTTTTTCCTTTTCTTATCTGTTC	1.77
CAAAGGCACAGATCATATGGCCCACAAAGC	-1.28
CAGGGGGGCGCCTACGGACGGGTAAGAGTC	-1.3
TTTACCTGCCTGTGCTGTGGCTGCCAAGAC	-1.26
AGGTCCAAGCAGATGCTTTGAAGTGTAAAA	0.082
TCAAAGGCCAAATTGACACCGTATCATCAA	-1.27
GTGTGGGACTTTGGTCTGCTGAGTCTCATG	2.52

Sequence	binding signal (log2 normalized intensity)
TCCCCCGCCAGATGTTTTTACCCTGAAGGA	2.88
GCAAGAGAATCAGAGAGATACTGAACCTTG	2.85
AGTGCAAGCAAACATACTGCTTATTTAAAT	-1.38
GTATTACCTGCATCTGCCCAGCAGAGCAGT	-1.31
ATAAAGGGCAGGAACATCAGACACAGAGAT	-1.34
CCTGTGCCCACTTTCCTGGGCCGGGGTAGC	0.114
CCTAGAAAAACAACTAAAGGAATGCGCCTG	-1.03
AAACAGGAAAAAGGGACAAAACTTCAAAGC	-1.25
GTCCTGGGGCGATGCTTCCAAAGTCCACAG	5.12
ACAGCATTAAGCTGAGGCAGAGTTGTTTGC	-1.15
TGGGGCCCATTACAGACTTTCAACAAGGTG	1.26
TGTAGGGAAATAAAACAGTCCATTTCAGTG	-0.78
CAGCTGATGAGGCACCAACACTTCCCAATC	-1.25
AGACTTGGGTTCAAAGAGCACATTCCTGCA	3.84
TCCTGCTGGGCAGAGGGCAGAAGCCTCTCT	-1.26
GGATGCTGAGGTGGGAGGATCGCTTGAGCC	-1.22
CGAGGCCGAGCCTCAGCCGGGAGAGGAGGC	-1.33
AAAGATAGTTGTAGTTACAGCTCATTAATC	-1.34
AACATGTAAATATGACCTTTGCTTTTCAAG	5.13
AGGCTCCCTCCCTGGGAGGCAGGACCTTGG	1.21
TTCCCCTGACAAGTATCTCGGTCAAACCTT	0.843
GAGTAGGTTCTCAGCTGACATTGGTGGAAT	1.08
CTCCAGCCACCCTGAAGGCTGAGCCTAGGA	-1.33
CTTCAGTCCTTCCCCCGCCAGATGTTTTTA	4.06
ACCTGAAAGAGCAACTACTCTCTCTTCTGG	-1.26

Sequence	binding signal (log2 normalized intensity)
CCAACGGGCCACGCCCTGCACCCTACGTAA	-1.1
TGCGCCTCCCTAGAGCAGCAGTAGGCTCTC	-1.32
AGGACAAAGTCCAAGGAAGGGCAAACTCTA	3.82
GGATCTGGCAGGGGCGCGGCCTAATGCCTG	-1.42
TTCATTGCTTTGAGCATGAGAGTTCATTGC	1.47
CTCCAAGGTGTCCAGCTTAGAGTGGACACA	1.16
GTAGTGATCCTGGTAGGGGGGTGTTATCTC	0.56
TGGAAATGCAAACACCTACATTCAAATCCT	-1.37
GACCATCACCACTTCAAGCTTGGTATGCTT	-0.696
TCTTTTGATAACTGATCTCTGGCTTGATCC	1.43
CGCGAGCACCGCGCGCGCAAAGCGGGGGCG	-1.38
TCTGTCTGAGACCACTTAAGCCTGGAATTC	-0.0786
TTAACCTTTGCTCTCTGAAATGAAGGTCAG	4.25
GGAAGGCAAAGTTCAACCCTGAATGTGTGC	2.73
GGAGCTCGGCGCCAGGAAGCAATGGCCCTC	-1.11
AGTGTAAATATTTGAGGACACAAAGTGGAC	2.34
GTCAAAACTTTGTTTGAGTTCCAAAGTCCA	7.18
GGTCTCTCACCTGGCTTCCCTTTGATCTTT	3.84
GCGCTCCCTGTTTAGAATTCTGCCTCCCCC	5.07
ATTTAAGACGAGTGGTTTGAGGTCACATAG	2.17
TCAGGAGCCCCACAGAGCAAAGGTCATGCA	6.34
GAGAAAATTCTAGATAACTCCAAGATTAGT	-1.41
GCTCCTGGGCCCAGATATACAAGAAAGAAA	-0.933
TGCCTGCCCTCTCCATGCAGACAGTCCCTC	0.215
AAGTAGACAGATCAGAGAGATTTTCACATG	-0.892

Sequence	binding signal (log2 normalized intensity)
CGCTTGGCTCAGGCCGGTTGGCCAGGTTCC	-1.14
CTGGCCTGTTTGATCTGGTTTTTGTTGTTG	2.25
ACTCCCACCAGCATGGTGATGCTAGCTACT	-1.35
CCTCTGCAACCTTTGCTCTCCCTCCTCTCT	3.82
CAGCTGCAGTGAAATTCTGGCCAACCAGCA	-1.24
GGGACTAGCCTTATCTCAGATGAGACTTTG	2.03
AAGTTCATTGTAGCCTCAAATTCCTGGGCT	-1.28
AACCATAATGAAATACCACTGCACACATAA	-1.28
AATAAAGTGGCAACCCTTGACCCCAGTAAC	5.23
ATAACGTTACAGTGGAGAAACCTGACAGAC	-1.3
CCCAAGGAGAGGAGGGAACAGCAAGACTTT	-1.44
GCTGCTGGGAGGTAGCTCAAAGTCTAACCC	3.7
GGAAAAAAAAACCACTGTGTCACGCACGGT	-1.17
TCAAAGGAGGCATTCCTGCAATCAGAGCTG	-1.29
TTCAAAGGGCAAAAGGGCAAAACTGTCACA	4.26
CATGGGAGATAGAGCAGTGGAAGACAAATG	-1.31
GAAGGCCTGTTAAAAACACGAGCTATTGCG	-1.33
TGAGGTGGCTGCAGAGTGGGAGGCCAAGAG	-1.29
ATAAAACTGGAATAAAGCAGTCCCTACTTC	-1.29
ACAGAACAGATGGTGTTAAATCCTATCCTA	-1.22
